Experimental data as given in the supplement of paper PMC12217912.
This is one part of the list. The full chains were built here from the parent and the listed change. Inactive controls read about 0.05.

B1: TEV protease; numbered along this chain (parent)
chain: MGESLFKGPRDYNPISSSICHLTNESDGHTTSLYGIGFGPFIITNKHLFRRNNGTLVVQSLHGVFKVKDTTTLQQHLVDGRDMIIIRMPKDFPPFPQKLKFREPQREERICLVTTNFQTKSMSSMVSDTSCTFPSGDGIFWKHWIQTKDGQCGSPLVSTRDGFIVGIHSASNFTNTNNYFTSVPKNFMELLTNQEAQQWVSGWRLNADSVLWGGHKVFMVKPEEPFQPVKEATQL

Variants of: B1
Experiment: raw area under fraction-flipped curve 0-4 h after induction (AUC4h, not background-subtracted), DNA-recorder readout of cleavage of the substrate (dimensionless); higher = more cleavage of the substrate by the protease variant
Settings: temperature: 34 °C; time window: 0-4 h after rhamnose induction
Method: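 In vivo DNA recorder in E. coli TOP10(DE3) ΔrhaA at 34 °C. Each TEVp single-site mutant (parent TEVp 0) is paired with a single-site variant of the 7-mer TEVs (canonical ENLYFQ|S). The substrate sits between flexible linkers in a Bxb1-sfGFP-TEVs-SsrA fusion, so cleavage stabilises Bxb1 and speeds flipping of a recombination array, read by NGS. The value is the raw area under the fraction-flipped curve over 0-4 h after rhamnose induction (AUC4h), with ≥20 reads per time point. It is not background-subtracted; inactive controls average about 0.047.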
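Further: Bxb1 expression induced with 0.2% (w/v) L-rhamnose at OD600 near 0.5, cultures sampled hourly, flipped fraction per protease–substrate barcode pair counted by paired-end Illumina sequencing.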

Variant	area with substrate ENLAFQS	area with substrate ENLCFQS	area with substrate ENLDFQS	area with substrate ENLFFQS	area with substrate ENLKFQS	area with substrate ENLLFQS	area with substrate ENLNFQS	area with substrate ENLQFQS	area with substrate ENLRFQS	area with substrate ENLSFQS	area with substrate ENLTFQS	area with substrate ENLEFQS	area with substrate ENLHFQS	area with substrate ENLIFQS	area with substrate ENLGFQS	area with substrate ENLPFQS	area with substrate ENLWFQS	area with substrate ENLVFQS	area with substrate ENLMFQS
E231L	0.0651	0.061	0.0558	0.0834	0.0685	0.0701	0.0593	0.0616	0.069	0.0648	0.0856	–	–	–	–	–	–	–	–
E189R	0.0692	–	0.061	0.0796	0.0687	–	0.0658	–	0.067	0.0588	–	0.0563	0.0593	0.0655	–	–	–	–	–
E189H	0.0658	–	0.0566	0.0885	0.0812	0.0631	–	–	–	0.0653	–	0.0617	0.0721	–	0.0477	0.0619	0.0621	–	–
E189P	0.0675	0.0606	–	0.0998	0.0704	0.0743	–	0.0671	–	0.0691	–	0.0711	0.0632	0.067	–	0.0632	0.0618	0.0619	–
Q197N	0.0658	–	–	–	0.0688	–	0.0607	0.0861	–	–	–	0.0558	–	–	0.0667	–	–	0.0797	–
M219P	0.0623	0.064	0.08	0.0623	0.0541	–	0.0643	–	0.0599	0.0608	–	0.0667	–	0.0664	–	0.0493	–	0.0614	–
M219K	0.083	0.0623	0.0596	0.0818	0.0632	0.0696	0.0622	0.0568	–	0.0612	–	0.0545	–	0.0682	–	–	0.0609	–	–
P228D	0.0608	0.0752	0.0739	0.091	0.0945	–	–	–	0.0738	0.0552	–	–	–	–	–	0.0667	–	–	0.0805
F218A	0.0611	0.0634	0.078	0.062	0.0545	–	0.0777	0.0571	–	–	–	0.0669	–	0.0604	–	–	0.0639	0.0595	–
F218K	0.0961	–	–	–	0.0564	0.0549	0.0555	–	–	0.0528	–	–	0.0579	–	–	0.0739	–	–	–
L235S	0.0637	0.0394	0.0657	0.0769	0.107	–	0.0621	–	–	0.0292	–	0.0611	–	0.0889	–	0.0688	–	–	–
Q234C	0.0724	–	0.0666	0.076	0.0695	0.0773	0.0467	0.0731	0.083	0.0604	0.0757	0.0437	0.07	0.0995	0.0627	–	–	0.0795	–
Q234M	0.0637	0.0973	0.065	0.0626	0.0475	0.0717	–	–	0.0507	0.0751	0.0723	–	0.0622	–	–	0.0631	–	–	0.0689
Q194M	0.0519	0.077	0.063	0.101	0.077	0.0707	0.0703	0.0736	0.0908	–	–	0.0735	0.0813	0.0702	–	–	–	–	–
D27R	–	0.0683	0.0588	0.074	0.0694	0.0551	0.0565	–	–	–	0.0735	–	0.0592	–	–	0.0309	–	–	–
S17Y	–	0.0657	0.0671	0.0827	0.0805	0.0688	0.0585	0.0699	0.0813	0.0651	–	–	0.0764	0.0701	0.0662	0.0651	0.043	0.0826	0.0776
